The source of these data is the supplement of paper PMC11417369.

Some of the results follow.

This assay has as its system PfSIP2 AP2 domain 1 (GST-tagged). Briefly: gcPBM binding intensity (ln(normalized median fluorescence intensity)); higher = stronger DNA binding. The method, boiled down: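 An Agilent 4 × 180k array of primer-extended double-stranded 36-bp intergenic genomic probes, with negative controls, was incubated for 1 h with GST-tagged P. falciparum DNA-binding domains expressed in E. coli. Alexa488 anti-GST antibody detected bound protein, scanned at 488 nm. Binding intensity is the highest Masliner-normalised natural-log median intensity across replicate spots of either probe orientation.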
“TTTTCTATAAGATTTGCACACAACTTATTCTATTAA [CACACA_site3752]”: the “gcPBM binding intensity (ln)” value was determined as 7.21. In the case of “ATAAATAAATAAATAAATATATATATGAAATAATGT [TGCATGCA_negctrl_site12]” it was 7.09; in that of “CTTCTTTTGTGATAAAGTACAAATATTTTGAAATAT [XGTACX_site1156]”, 7.44.

Turning to “AAAAAATATAAAACGAGTACATATATAATAAGCAAA [XGTACX_site1360]”, the “gcPBM binding intensity (ln)” value was found to be 7.23. For “CATTGACCATTAATTTGTACACAAGGGGAAATGAGG [XGTACX_site1756]” the value was 7.18; for “TATATATATATATATATATATATATATATATATATT [CACACA_negctrl_site1440]”, 9.26. In the case of “TCTTTCTGCTCTTATACACACAAATAAAGATTTTTT [CACACA_site2700]” it was 7.49; in that of “ATGAAATTTTCATATTGTACTATTAAAAATATATTT [XGTACX_site1989]”, 7.12; in that of “TGTAGATTTTGTAACACACACATATAAATACAGATA [CACACA_site5343]”, 7.1. For “TAAGGGATATGTATATGTACATACAAATATATATAA [XGTACX_site2892]” the value was 6.99; for “TTTGCTTCGATATATTCACACATTTTTTTTCTTATT [CACACA_site4499]”, 7.06.

Turning to “AAATGTAATAAATATACACACACAAATATATATATA [CACACA_site8754]”, the “gcPBM binding intensity (ln)” value stood at 8.48. Turning to “AATTTCATTTTTAGAAGTACATTTATATTAAAAATC [XGTACX_site2888]”, the “gcPBM binding intensity (ln)” value is 7.02. As to “TAAGATCCTTAAAACGCATGCAGTATTTTTATTTCT [TGCATGCA_site532]”, the “gcPBM binding intensity (ln)” value turned out to be 6.67. With “TAGCCAAAAGGATATGCACACACACCCACATATATA [CACACA_site8684]”, the “gcPBM binding intensity (ln)” value came out at 7.07.

Consider “CATATAATTATTTTCACACATATAACTACATCTATA [CACACA_site5915]”, for which the “gcPBM binding intensity (ln)” value was found to be 6.93.

With “CTTTTACGTTTAGGATGTACATTTAAAAAAAAAGAA [XGTACX_site8032]”, the “gcPBM binding intensity (ln)” value was determined as 7.3. In the case of “ATATAAATAAAAAAAAGTACATAATATATAAAAATA [XGTACX_site3065]” it was 7.13; in that of “AATAAATATTAAATGACAAAAAAAAAAAAAAAAGGG [XGTACX_negctrl_site15]”, 7.65; in that of “TATAATCCATAAGAAGCACACACATATATATATATT [CACACA_site8394]”, 7.16. As for “TTAAGATGCATAAATACATGCAAAGTAAATAATTCT [TGCATGCA_site517]”, the “gcPBM binding intensity (ln)” value was found to be 6.88.

For “TTAGCAGGACGTTTGGTGCACGTACTGTTTTTCTTT [GTGCAC_site9856]”, the “gcPBM binding intensity (ln)” value is 10.3. In the case of “ATTATAAGAATTAAAAGAAACAAAATTTTAATTATA [CACACA_negctrl_site610]” it was 6.78.

Turning to “AAAAAGAAGAATAATACACACAAATTATTTTATATA [CACACA_site1919]”, the “gcPBM binding intensity (ln)” value is 6.72. Regarding “TATTCCAAAAATGTGTGTACATAAATACAATATTAT [XGTACX_site2653]”, the “gcPBM binding intensity (ln)” value stood at 7.32.

In the case of “TATAATAAATGGACGGTGCGACATGACCATATGTGT [GTGCAC_site9476]”, the “gcPBM binding intensity (ln)” value is 8.55. In the case of “TTGTTAATAAAAATATTGGAAAGTTTATAAAATTTT [CACACA_negctrl_site1487]” it was 6.67; in that of “TTATTTTCTTTTTCTTGTACACACATAATATGGATG [XGTACX_site1481]”, 7.05.

Take “ATAATATATATACAAACACACAATTGCGTCCACATT [CACACA_site8515]”: the “gcPBM binding intensity (ln)” value was 7.35. For “GACACCCATAAATATACACACGCACAACACAAAATA [CACACA_site8944]” the value was 7.67. Take “TTATTTTTTAGTAGTACACACTTTTTGTACCTTTTA [CACACA_site4503]”: the “gcPBM binding intensity (ln)” value amounted to 7.14. In the case of “CTTACCAAAAAACACACACACACAAAATATATAAAT [CACACA_site1870]” it was 7.23; in that of “AATAAAAAAAAAAAAAAAAAAAAAAAGACACTAAAA [CACACA_negctrl_site1075]”, 6.75. In the case of “CTAAAAGAACATGTGTGTACTTATGTTCTCTTTTTT [XGTACX_site5983]” it was 6.73. In the case of “AATAGGAAAGATTTTGCATGTGATATAAGTAATTTT [TGCATGCA_site657]” it was 6.84; in that of “CATATAATAAATAGATGTACAGACTATATATATATA [XGTACX_site6575]”, 9.33; in that of “TTTATATGATACACACGTACATATACACATATACAC [XGTACX_site8123]”, 7.22. Turning to “TATATATATATTTTTGCACACATTTTTTAAGGTACA [CACACA_site2145]”, the “gcPBM binding intensity (ln)” value turned out to be 8.67. For “TATAATATTTATATAACACACATATAGATTTATTTA [CACACA_site6269]” the value was 6.96; for “TATATTAAAGGGGTTTCACACACATGTATAATTAAT [CACACA_site7950]”, 6.92. For “TATTATTTAATCAAATGTACATAGAAAATGTATGTA [XGTACX_site4433]” the value was 6.93; for “ATGTAAAATTAATATTGTACTTTTCCATCATGATAC [XGTACX_site2669]”, 7; for “AACAAACACAGACACACACACACACCCAAATGATTA [CACACA_site2431]”, 7.26.

“ATAATATAACACAAATGTACAAAAAATAAATAAATA [XGTACX_site385]”: the “gcPBM binding intensity (ln)” value came to 6.83. In the case of “CATACTCACCAACACACACACACACCCATATAGAAT [CACACA_site592]” it was 7.23. In the case of “TATATATATACTTAATGTACATATATATATATATAT [XGTACX_site3102]” it was 9.75; in that of “CACAGATAAATTAACACACACACACCCATATATATA [CACACA_site3960]”, 7.66.

For “CTTTTTGAAATATTAACACACATTTTGTTAATTAAT [CACACA_site4046]”, the “gcPBM binding intensity (ln)” value came to 6.85. On to “AAAAGGAAGATATATACACACATACAAATATATATA [CACACA_site5236]”, for which the “gcPBM binding intensity (ln)” value is 7.2. As to CTATTTGGGGGAAGAGTGCATGACATGAATATAAAA, the “gcPBM binding intensity (ln)” value turned out to be 9.99. For “CTATATTATAAATATACACACATATCTTAAGTATAA [CACACA_site3096]” the value was 6.98; for “ATTAGTATTAGATGATGTACATTTATATTGAAATAT [XGTACX_site8537]”, 7.03. In the case of “TTGATGTATACAATGTAGATTATTTAATATTTCAAC [CACACA_negctrl_site73]”, the “gcPBM binding intensity (ln)” value was determined as 6.99. Regarding “TTTTTTTTTTTTTTCACACACTAATAATATTATCAT [CACACA_site4417]”, the “gcPBM binding intensity (ln)” value is 7.18. “ATAAATTTTTAAAAATATGAATTATGTAATTTGTGA [CACACA_negctrl_site1621]”: the “gcPBM binding intensity (ln)” value was 6.92. For the sequence “ATAAAAATACAGTTAACACACATGTGTATTTATATG [CACACA_site7727]”, the “gcPBM binding intensity (ln)” value was determined as 7.01. In the case of “GAAAACGTTTGAAGTTGTACATATGTATAAAAAGAA [XGTACX_site2304]” it was 7.61; in that of “ATGGTCTGTTAAAGATGTACTTTTTAAAAATAAACG [XGTACX_site2583]”, 7.15.

Consider “TGTTATTTAAATAATTCTTTTTAAAAGATGAATTAT [CACACA_negctrl_site1226]”, for which the “gcPBM binding intensity (ln)” value was found to be 6.89. In the case of “TTACTTAAGAAACACACACACAAAAAAAAAAAAAAA [CACACA_site946]”, the “gcPBM binding intensity (ln)” value was determined as 7.01. As for “ATCATAATCATAAAAAGTACAAACGATAAAATAAAT [XGTACX_site3832]”, the “gcPBM binding intensity (ln)” value came to 7.23. For “TATGTAAAAAATTTAACACACACATATATATATATA [CACACA_site8829]” the value was 9.47. With “TTTTTTTCTGTGAGTGCATGTAATAAAATAAATTTA [TGCATGCA_site276]”, the “gcPBM binding intensity (ln)” value worked out at 9.79.

In the case of “TTCAAAAATATATAATGTACACAAATATAAAAGAAT [XGTACX_site1944]”, the “gcPBM binding intensity (ln)” value was found to be 7.42. For “TGTTATTTTAAAAAAAAAATTATTAACTTAAAAAAA [CACACA_negctrl_site1641]” the value was 6.68; for “TATTATTGTCTTTCAAAAAAAAAAAAAAAAAAAAAA [CACACA_negctrl_site1242]”, 6.91; for “TATTTATAATAGTGTACACAATTATAAACTGAATAT [CACACA_site6041]”, 7.37.

In the case of “CAACATATATTAATATGTACATATATATAGATATAT [XGTACX_site4107]”, the “gcPBM binding intensity (ln)” value is 6.98. In the case of “ATAATTTGTGGACACACACACACACCGACATATATA [CACACA_site8718]” it was 7.26; in that of “TTGTTAATGGTACGAACACACATATAAAGATGCATA [CACACA_site2044]”, 7.02; in that of “TTATTCACTTCTTTTTAAAAAAAAAAAAAAAAAAAA [CACACA_negctrl_site223]”, 6.85. On to “ATTTCGAATATTAAGTGTACAATATAAATATATAAA [XGTACX_site6674]”, for which the “gcPBM binding intensity (ln)” value turned out to be 7.

As to “TTATATGAATTTTAGATTTATAATACAAGAATATTC [CACACA_negctrl_site70]”, the “gcPBM binding intensity (ln)” value turned out to be 6.74. For “AAAAAAAAAAAAAAAAGTACAAATAAAAAAAAAATA [XGTACX_site4814]” the value was 7.51. With “ATTAAATACATTAACACACACACAAATATGTACATA [CACACA_site7372]”, the “gcPBM binding intensity (ln)” value was 7.13. For “ATATTATATAATATACGTACATATATTATGCATAAA [XGTACX_site7895]” the value was 7.19. For the sequence “TACGTAGCCACACTAACACACACAAATATGCACAAT [CACACA_site8942]”, the “gcPBM binding intensity (ln)” value was found to be 8.89.

As for “TTTTTTTTAAAAAACACACACCTAAACAAGATATTT [CACACA_site6541]”, the “gcPBM binding intensity (ln)” value amounted to 7.05. In the case of “CATATTTTTAAATACACACACATAAAAAAAAAAAAA [CACACA_site1095]” it was 6.94; in that of “AAATAAAAAAGTAGTACACACTTCACGATATTTTTT [CACACA_site6015]”, 7.33; in that of “AAAAATATAAACTGCACACACACAAAAAAAGAAAAA [CACACA_site648]”, 7.25. For “TATATACATATATGTACACACATTACAGATGTACAT [CACACA_site966]” the value was 7.38; for “AATCTAATATAATGCACACATAAAAAAAAAATCAAA [CACACA_site2714]”, 7.29; for “TATATTTACAATAAAACGTTATTTTTTGTTATTTTC [CACACA_negctrl_site612]”, 6.79.

For the sequence “GAAAAAAAAAAAAAAAAAAAAAGGAAAAAAGTGAAA [CACACA_negctrl_site996]”, the “gcPBM binding intensity (ln)” value came to 6.65. In the case of “ATAAAACAATAAAATTGTACATAAATTGATTATACT [XGTACX_site6723]” it was 6.85.

Take “ACGTTTACGTTATTATGTACGTAATATATCATACCT [XGTACX_site5006]”: the “gcPBM binding intensity (ln)” value turned out to be 6.85. In the case of “GAATAAATAGACGAGTGTACTTTTTTTTAAAAAAAA [XGTACX_site7880]” it was 7.18.
